# Source: the supplement of paper PMC4604168 (melanoma cell lines)
# Some of the results follow. Repeats are few or missing, and single values can be far off.
# Test system: A2058
# Test: cell count relative to DMSO control; melanoma cells; higher = more viable cells
# Conditions: library dose: standard library concentration; 72 h
# 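Note: cells treated in 1,536-well plates, then fixed and DAPI-stained, with nuclei counted from automated high-throughput microscope images.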
row,SMILES,cell count [%]
1,"OCc1c[nH]c2ccccc12 [Indole-3-carbinol] + OCCn1cc(-c2cnc3nnn(Cc4ccc5ncccc5c4)c3n2)cn1 [PF04217903] (first compound 4 µM, partner dose 5 µM)",135
2,"Clc1ccc(Nc2nnc(Cc3ccncc3)c3ccccc23)cc1 [vatalanib] + Cn1cncc1[C@@](N)(c1ccc(Cl)cc1)c1ccc2c(c1)c(-c1cccc(Cl)c1)cc(=O)n2C [tipifarnib] (first compound 10 µM, partner dose 0.05 µM)",62.2
3,"Nc1cccc2c1CN(C1CCC(=O)NC1=O)C2=O (stereo not drawn) [lenalidomide] + O=C(CCCCCCC(=O)Nc1ccccc1)NO [vorinostat] (first compound 5 µM, partner dose 0.4 µM)",76.1
4,"Cn1c(Nc2ccc(C(F)(F)F)cc2)nc2cc(Oc3ccnc(-c4ncc(C(F)(F)F)[nH]4)c3)ccc21 + COCC[n+]1c2c(n(Cc3cnccn3)c1C)C(=O)c1ccccc1C2=O [YM155] (first compound 0.4 µM, partner dose 0.002 µM)",15.7
5,"Cn1c(Nc2ccc(C(F)(F)F)cc2)nc2cc(Oc3ccnc(-c4ncc(C(F)(F)F)[nH]4)c3)ccc21 + Cc1ccc(NC(=O)c2cccc(N(C)C)c2)cc1NC(=O)c1ccc(O)cc1 [ZM336372] (first compound 0.4 µM, partner dose 10 µM)",64.2

# Test system: A375
# Test: as above
# Conditions: library dose: standard library concentration; 72 h
row,SMILES,cell count [%]
1,"OCc1c[nH]c2ccccc12 [Indole-3-carbinol] + CN(C)S(=O)(=O)c1ccc2c(c1)/C(=C/c1cc3c([nH]1)CCCC3)C(=O)N2 [SU6656] (first compound 4 µM, partner dose 2 µM)",116
2,"Cn1c(Nc2ccc(C(F)(F)F)cc2)nc2cc(Oc3ccnc(-c4ncc(C(F)(F)F)[nH]4)c3)ccc21 + COc1cc2c(Oc3ccc4[nH]c(C)cc4c3F)ncnc2cc1OCCCN1CCCC1 [cediranib] (first compound 0.4 µM, partner dose 2 µM)",80.6
3,"Clc1ccc(Nc2nnc(Cc3ccncc3)c3ccccc23)cc1 [vatalanib] + C=CCn1c(=O)c2cnc(Nc3ccc(N4CCN(C)CC4)cc3)nc2n1-c1cccc(C(C)(C)O)n1 [MK1775] (first compound 10 µM, partner dose 0.1 µM)",70
4,"C#Cc1cccc(Nc2ncnc3cc(OCCOC)c(OCCOC)cc23)c1 [erlotinib] + COc1ccc(Cl)c(Nc2nc3ccccc3nc2NS(=O)(=O)c2cccc(NC(=O)C(C)(C)N)c2)c1 [XL147] (first compound 4 µM, partner dose 4 µM)",102
5,"Clc1ccc(Nc2nnc(Cc3ccncc3)c3ccccc23)cc1 [vatalanib] + CC(C)(C)c1cnc(CSc2cnc(NC(=O)C3CCNCC3)s2)o1 [SNS-032] (first compound 10 µM, partner dose 0.05 µM)",68.5
6,"Nc1cccc2c1CN(C1CCC(=O)NC1=O)C2=O (stereo not drawn) [lenalidomide] + C[C@@H]1CCN(C(=O)CC#N)C[C@@H]1N(C)c1ncnc2[nH]ccc12 [CP690550] (first compound 5 µM, partner dose 5 µM)",97.1
7,"Cn1c(Nc2ccc(C(F)(F)F)cc2)nc2cc(Oc3ccnc(-c4ncc(C(F)(F)F)[nH]4)c3)ccc21 + CC1(C)NC(=O)N(c2ccc([N+](=O)[O-])c(C(F)(F)F)c2)C1=O [nilutamide] (first compound 0.4 µM, partner dose 5 µM)",75.3
8,"Nc1cccc2c1CN(C1CCC(=O)NC1=O)C2=O (stereo not drawn) [lenalidomide] + CN(NC(=O)CC(=O)NN(C)C(=S)c1ccccc1)C(=S)c1ccccc1 [STA4783] (first compound 5 µM, partner dose 0.03 µM)",102
9,"OCc1c[nH]c2ccccc12 [Indole-3-carbinol] + O=C(CCCCCCC(=O)Nc1ccccc1)NO [vorinostat] (first compound 4 µM, partner dose 0.4 µM)",102
10,"C#Cc1cccc(Nc2ncnc3cc(OCCOC)c(OCCOC)cc23)c1 [erlotinib] + Nc1cccc2c1CN(C1CCC(=O)NC1=O)C2=O [lenalidomide] (first compound 4 µM, partner dose 5 µM)",127
11,"Clc1ccc(Nc2nnc(Cc3ccncc3)c3ccccc23)cc1 [vatalanib] + CO[C@@H]1[C@H](N(C)C(=O)c2ccccc2)C[C@H]2O[C@]1(C)n1c3ccccc3c3c4c(c5c6ccccc6n2c5c31)C(=O)NC4 [Midostaurin] (first compound 10 µM, partner dose 0.4 µM)",80.6
12,"Cn1c(Nc2ccc(C(F)(F)F)cc2)nc2cc(Oc3ccnc(-c4ncc(C(F)(F)F)[nH]4)c3)ccc21 + C[C@@H]1CCN(C(=O)CC#N)C[C@@H]1N(C)c1ncnc2[nH]ccc12 [CP690550] (first compound 0.4 µM, partner dose 5 µM)",63.8
13,"Cn1c(Nc2ccc(C(F)(F)F)cc2)nc2cc(Oc3ccnc(-c4ncc(C(F)(F)F)[nH]4)c3)ccc21 + NCC(=O)Nc1ccc(-n2nc(C(F)(F)F)cc2-c2ccc3c(ccc4ccccc43)c2)cc1 [OSU03012] (first compound 0.4 µM, partner dose 5 µM)",60.7
14,"O=C(CCCCCCC(=O)Nc1ccccc1)NO [vorinostat] + NC(=O)Nc1cc(-c2cccc(F)c2)sc1C(=O)N[C@H]1CCCNC1 [AZD7762] (first compound 0.4 µM, partner dose 0.1 µM)",55.6
15,"C#Cc1cccc(Nc2ncnc3cc(OCCOC)c(OCCOC)cc23)c1 [erlotinib] + Cc1nc(Nc2ncc(C(=O)Nc3c(C)cccc3Cl)s2)cc(N2CCN(CCO)CC2)n1 [dasatanib] (first compound 4 µM, partner dose 0.02 µM)",58.9
16,"Cn1c(Nc2ccc(C(F)(F)F)cc2)nc2cc(Oc3ccnc(-c4ncc(C(F)(F)F)[nH]4)c3)ccc21 + O=C(CCCCCCC(=O)Nc1ccccc1)NO [vorinostat] (first compound 0.4 µM, partner dose 0.4 µM)",76.4
17,"C#Cc1cccc(Nc2ncnc3cc(OCCOC)c(OCCOC)cc23)c1 [erlotinib] + COc1cc2c(Oc3ccc4[nH]c(C)cc4c3F)ncnc2cc1OCCCN1CCCC1 [cediranib] (first compound 4 µM, partner dose 2 µM)",104
18,"C#Cc1cccc(Nc2ncnc3cc(OCCOC)c(OCCOC)cc23)c1 [erlotinib] + CN(C)S(=O)(=O)c1ccc2c(c1)/C(=C/c1cc3c([nH]1)CCCC3)C(=O)N2 [SU6656] (first compound 4 µM, partner dose 2 µM)",120
19,"Clc1ccc(Nc2nnc(Cc3ccncc3)c3ccccc23)cc1 [vatalanib] + C[C@@H]1CCN(C(=O)CC#N)C[C@@H]1N(C)c1ncnc2[nH]ccc12 [CP690550] (first compound 10 µM, partner dose 5 µM)",84.8
20,"C#Cc1cccc(Nc2ncnc3cc(OCCOC)c(OCCOC)cc23)c1 [erlotinib] + Cn1c(Nc2ccc(C(F)(F)F)cc2)nc2cc(Oc3ccnc(-c4ncc(C(F)(F)F)[nH]4)c3)ccc21 [CHIR265] (first compound 4 µM, partner dose 0.4 µM)",74.2
21,"Cn1c(Nc2ccc(C(F)(F)F)cc2)nc2cc(Oc3ccnc(-c4ncc(C(F)(F)F)[nH]4)c3)ccc21 + CN(C)S(=O)(=O)c1ccc2c(c1)/C(=C/c1cc3c([nH]1)CCCC3)C(=O)N2 [SU6656] (first compound 0.4 µM, partner dose 2 µM)",62.7
22,"OCc1c[nH]c2ccccc12 [Indole-3-carbinol] + COc1cc(Nc2ncc(F)c(Nc3ccc4c(n3)NC(=O)C(C)(C)O4)n2)cc(OC)c1OC [Tamatinib] (first compound 4 µM, partner dose 2 µM)",84.2
23,"Cn1c(Nc2ccc(C(F)(F)F)cc2)nc2cc(Oc3ccnc(-c4ncc(C(F)(F)F)[nH]4)c3)ccc21 + Cn1cncc1[C@@](N)(c1ccc(Cl)cc1)c1ccc2c(c1)c(-c1cccc(Cl)c1)cc(=O)n2C [tipifarnib] (first compound 0.4 µM, partner dose 0.05 µM)",68.9
24,"Clc1ccc(Nc2nnc(Cc3ccncc3)c3ccccc23)cc1 [vatalanib] + O=C(CCCCCCC(=O)Nc1ccccc1)NO [vorinostat] (first compound 10 µM, partner dose 0.4 µM)",103
25,"C#Cc1cccc(Nc2ncnc3cc(OCCOC)c(OCCOC)cc23)c1 [erlotinib] + NCC(=O)Nc1ccc(-n2nc(C(F)(F)F)cc2-c2ccc3c(ccc4ccccc43)c2)cc1 [OSU03012] (first compound 4 µM, partner dose 5 µM)",46.7
26,"Cn1c(Nc2ccc(C(F)(F)F)cc2)nc2cc(Oc3ccnc(-c4ncc(C(F)(F)F)[nH]4)c3)ccc21 + O=C(O)c1ccc(-c2c[nH]c3ncc(-c4ccccc4)cc23)cc1C1CCCC1 [GSK650394] (first compound 0.4 µM, partner dose 0.8 µM)",72.3
27,"COCC[n+]1c2c(n(Cc3cnccn3)c1C)C(=O)c1ccccc1C2=O + O=C(CCCCCCC(=O)Nc1ccccc1)NO [vorinostat] (first compound 0.002 µM, partner dose 0.4 µM)",100
28,"C#Cc1cccc(Nc2ncnc3cc(OCCOC)c(OCCOC)cc23)c1 [erlotinib] + C[C@]1(c2nc3c(C(N)=O)cccc3[nH]2)CCCN1 [Veliparib] (first compound 4 µM, partner dose 7 µM)",73.8
